Measurements from the RNAGym collection of RNA variant scans (doi:10.7554/elife.90254).
The source gives no read counts; variants with many changes may rest on few reads.

B1: LINE1-mini (parent)
chain: GGCAGAGCUCAACACAGCGUGGCAAAGUGGCUGUGGCUAGACUGCC

Variants of: B1
Assay: self-cleavage, relative activity (ratio to wild type); higher = more cleavage; in vitro, sequencing; the parent is a self-cleaving ribozyme

Row | Variant | self-cleavage
1 | C8A C10A U34A A39C | 0.03
2 | C8A G19U C23G A25C | 0.08
3 | C8A G19U C31U G36A C37U | 0.08
4 | C8A A26U U32C G33U G40U | 0.14
5 | C8A U9G A41U | 0.04
6 | C8A C10A G30C A41U | 0.02
7 | C8A C18U C45G C46A | 0.09
8 | C8A G29A G30A | 0.14
9 | C8A A16U U28C G29C A41C | 0.04
10 | C8A C18U A24G G35U | 0.08
11 | C8A G19A A25G | 0.1
12 | C8A U9G A16G C23A G27A G33U G36A | 0.04
13 | C8A G27U C42A | 0.16
14 | C8A G35U C46U | 0.03
15 | C8A C13A A16G G35A C37A | 0.14
16 | C8A A16U U34C | 0.08
17 | C8A C15U G19C A25U | 0.18
18 | C8A C10A G40A | 0.02
19 | C8A C10A G40U | 0.18
20 | C8A U9A U34A | 0.09
21 | C8A C18U G44U | 0.19

Row | Variant | self-cleavage
22 | C8A G19A G36U | 0.57
23 | C8A G29C G44A | 0
24 | C8A A14G G22U G30U | 0.95
25 | C8A C13U C23G C46U | 0.14
26 | C8A C15G U32C G33U U34G G36C U43A | 0.04
27 | C8A C42G C45A | 0.06
28 | C8A A14G C31G U34A | 0.11
29 | C8A G33C G36U U43A C45A | 0.01
30 | C8A A24C C37U | 0.27
31 | C8A A16C G35A G36A U38C | 0.09
32 | C8A U9C A25G A26C C37A A41U | 0.08
33 | C8A G27C C46A | 0.08
34 | C8A G27A G30C | 0.37
35 | C8A U9G C46A | 0.02
36 | C8A C10A A26U U38C | 0
37 | C8A C10A G30U G36U | 0.09
38 | C8A G30U C31U A41U C45A | 0.72
39 | C8A A25G A26G | 0.07
40 | C8A G27U U38C C42U U43G | 0.06
41 | C8A A16C G19C G27C | 0.05
42 | C8A G22U G35U | 0.4

Row | Variant | self-cleavage
43 | C8A C13G A16U G36C C45A | 0.09
44 | C8A U9C G19C | 0.05
45 | C8A G22C C42G | 0.06
46 | C8A C23G C45G | 0.05
47 | C8A G19C G36A | 0.11
48 | C8A C18U U28A U32A | 0.04
49 | C8A G17A G40A C46U | 0.1
50 | C8A G35A G36C | 0.19
51 | C8A C18G C23U G29A U32A | 0.05
52 | C8A G19A A26C G30U | 0.1
53 | C8A U9A A25C | 0.14
54 | C8A G19U G33C C42G | 0.23
55 | C8A G21U G27C G29U | 0.09
56 | C8A A16U G30U C42U | 0.25
57 | C8A A14C G19U G29U C31G | 0.05
58 | C8A C15A C31U U34C | 0.09
59 | C8A C10U A12U C13G C18A | 0.03
60 | C8A G22U C31A G35C | 0.06
61 | C8A A14G A16C G30U | 0.12
62 | C8A C18A C42U | 0.17
63 | C8A A16U C18A U34G G44C | 0.08

Row | Variant | self-cleavage
64 | C8A C23A U32C | 0.08
65 | C8A A25G G36C | 0.44
66 | C8A C23A G40U C46A | 0.15
67 | C8A G19A A24C U34C | 0.26
68 | C8A C15A C18A | 0.07
69 | C8A C13A C46A | 0.2
70 | C8A U9A A11G U32C G33C | 0
71 | C8A C10A A14C G19A C31A | 0.02
72 | C8A C15G G21A | 0.59
73 | C8A G30A C31U | 0.18
74 | C8A G19C A25C | 0.09
75 | C8A A25G U38C U43A | 0.26
76 | C8A C15A U34A C37G | 0.36
77 | C8A C13U C15U G21C C37G U43A | 0.22
78 | C8A C15U C31U C42G | 0.11
79 | C8A U9G C31G | 0.03
80 | C8A G17A G19A U43A | 0.28
81 | C8A A16U U20G U28G G30U C37A U38A | 0.17
82 | C8A G29A C45U | 0.24
83 | C8A G27U C31G G40U G44C | 0.01
